# PubChem BioAssay AID504832 (National Center for Advancing Translational Sciences (NCATS), 2011)
# Out of some 310,000 compounds screened, about 18,000 (5.8%) were called active. Inconclusive means that the source gave no clear call. Such entries were picked first, then a sample of the others. Calls follow the shape of the dose curve; as a rule, active = well fitted inhibition curve with a large enough effect; inconclusive = small, poorly fitted or top-dose-only effect, or another doubt; inactive = no such curve, though single readings can be large or run the other way. No potency is given beside an inconclusive call; the fits are too rough.
# Assay: Primary qHTS for delayed death inhibitors of the malarial parasite plastid, 48 hour incubation
# Details: P. falciparum luciferase growth in erythrocytes; series mostly up to 28.7 µM
# Summary of the method: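 Luciferase-expressing parasites in RBCs, 2% Hct / 0.1% parasitemia final; RPMI 1640 + 0.5% Albumax; 37 C, 5% CO2, one generation; luminescence read-out, lower signal = inhibition.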
# Potency is read from the fitted curve at half-maximal effect; tags tell the direction and shape of the fitted curve.
row,Structure (SMILES),Potency
1,CC1Cc2ccccc2N1CC(=O)N(C)c1c(N)n(Cc2ccccc2)c(=O)[nH]c1=O (stereo not drawn),"inconclusive [inhibitor, single point]"
2,Cc1occc1C(=O)N1CCC2(CCCN(Cc3ccc(F)c(F)c3)C2)C1 (stereo not drawn),"inconclusive [inhibitor, partial curve]"
3,COCCn1c(=O)[nH]c(=O)c2cc(C(=O)c3cc(Cl)ccc3O)cnc21,active: 9.28 µM
4,Cc1ccc(-c2csc(NC(=O)c3cccc(N4C(=O)CCC4=O)c3)n2)o1,inactive
5,C/C(CC(=O)NCc1ccccc1)=N\NC(=O)c1cnccn1,inactive
6,CC(=Nc1ccccc1O)c1sc2ccccc2c1O,"inconclusive [inhibitor, full curve, poor fit]"
7,CCOC(=O)N1CCN(C(=O)c2cc(COc3cccc(C(F)(F)F)c3)on2)CC1,"inconclusive [inhibitor, single point]"
8,COc1ccc(/C=N/NC(=O)CCc2c(C)n[nH]c2C)cc1OC,inactive
9,NC1=NC(c2ccccc2)N=C(Nc2ccccc2)N1 (stereo not drawn),active: 4.65 µM
10,CCn1cc(C(=O)NCCc2ccccc2)c(=O)c2cc(S(=O)(=O)N3CCCC3)ccc21,"inconclusive [inhibitor, partial curve]"
11,Cc1ccc(NC(=O)CN(C)C(=O)c2ccc(Br)o2)cc1,inactive
12,Cc1oc2c(CN3CCCC(C)C3)c(O)ccc2c(=O)c1-c1ccccc1 (stereo not drawn),active: 6.57 µM
13,C=Cc1ccc(C(=O)N2CCCC(Nc3ccc4c(c3)OCCO4)C2)cc1 (stereo not drawn),"inconclusive [inhibitor, single point]"
14,CCOCCCNC(=O)C1CCCN(S(=O)(=O)c2ccc(-n3cnnn3)cc2)C1 (stereo not drawn),inactive
15,O=C(C1CCC1)N1CCN(c2ccc(C(F)(F)F)cc2[N+](=O)[O-])CC1,inactive
16,CCCC(=O)N(Cc1cccnc1)c1nc2c(OC)ccc(Cl)c2s1,"inconclusive [inhibitor, single point]"
17,CC(=O)Nc1cc(-c2ccc(F)cc2)[nH]n1,inactive
18,O=C(COc1ccc(Br)cc1)Nc1ccccc1C(=O)NC1CC1,"inconclusive [inhibitor, single point]"
19,C=CCN(C#N)c1nc(OC)nc(N2CCCC2)n1,"inconclusive [inhibitor, full curve]"
20,Cn1c(SCc2ccc(Br)cc2)nnc1-c1cccs1,"inconclusive [inhibitor, single point]"
21,O=C(c1ccc(Cl)cc1)N1CCc2c([nH]c3ccccc23)C1C(F)(F)F (stereo not drawn),inactive
22,Cc1ccc(C(=O)Nc2cc(Cl)ccc2Oc2ccccc2)cc1[N+](=O)[O-],active: 13.1 µM
23,COc1cccc(-c2nc(CS(=O)(=O)CC(=O)NC3CCCCC3C)c(C)o2)c1 (stereo not drawn),"inconclusive [inhibitor, partial curve, poor fit]"
24,Cc1ccc(S(=O)(=O)Nc2ccccc2C(=O)N2CCOCC2)cc1,inactive

row,Structure (SMILES),Potency
1,Cc1ccc2oc(Nc3nc(-c4ccccc4)cc(=O)[nH]3)nc2c1,"inconclusive [inhibitor, full curve, poor fit]"
2,COc1ccc(CC(=O)c2cc(OC)c(OC)cc2CC(=O)O)cc1OC,inactive
3,C#Cc1ccc([C@@H]2C=C(C(=O)N3CCN(Cc4ccc5c(c4)OCO5)CC3)O[C@H](OCC)[C@H]2CCCO)cc1,inactive
4,CCCCOC(=O)n1c(=O)oc2ccccc21,inactive
5,Cc1nn(-c2ccccc2)c(C)c1-c1cc(C(=O)N/N=C/c2cccnc2)[nH]n1,inactive
6,O=C(NCC1COc2ccccc2O1)c1cc(S(=O)(=O)N2CCOCC2)ccc1F (stereo not drawn),"inconclusive [inhibitor, partial curve, poor fit]"
7,O=C(CN1CCOCC1)Nc1ncc(Cc2cccc(Cl)c2)s1,inactive
8,COCCCn1c(O)c(/C=C2\N=C(C#N)C(=Nc3ccc(C)cc3)O2)sc1=S,"inconclusive [inhibitor, partial curve, poor fit]"
9,Cc1cccc(C)c1OCc1n[nH]c(=S)o1,inactive
10,O=c1c([N+](=O)[O-])cccn1Cc1ccc(F)cc1Cl,active: 0.37 µM
11,N/C(Cc1cccc2ccccc12)=N\OC(=O)c1cccs1,active: 13.1 µM
12,C#CCNC(=O)c1cccn1-c1ncc(C(F)(F)F)cc1Cl,"inconclusive [inhibitor, partial curve, poor fit]"
13,CCCCCn1c(=O)c(C(=O)Nc2cc(C)ccn2)c(O)c2ccccc21,"inconclusive [inhibitor, single point]"
14,O=C(CCc1ccccc1)NNc1cc(N2CCCCC2)nc(N2CCCCC2)n1,"inconclusive [inhibitor, partial curve, poor fit]"
15,Cc1cccc(C(=O)Nc2ccccc2SCC2CSc3nc4ccccc4c(=O)n32)c1 (stereo not drawn),"inconclusive [inhibitor, single point]"
16,Cn1cc(/C=C2\SC(=O)N(c3ccc(O)cc3)C2=O)c2ccccc21,"inconclusive [inhibitor, single point]"
17,COc1ccc(-c2cc(C(=O)N/N=C(\C)c3cccnc3)c3cc(C)ccc3n2)cc1OC,"inconclusive [inhibitor, single point]"
18,COCCN(C(=O)COC(=O)Cc1c[nH]c2ccccc12)c1c(N)n(Cc2ccccc2)c(=O)[nH]c1=O,"inconclusive [inhibitor, single point]"
19,COc1ccc(CNC(=O)C2CCN(C(=O)c3ccc(-c4ccccc4)cc3)CC2)cc1,inactive
20,CC(C)[C@]1(c2ccccc2)ON(c2ccccc2C(F)(F)F)C1=O,active: 1.85 µM
21,O=C(NCc1ccncc1)C1CCN(S(=O)(=O)c2ccccc2)CC1,inactive
22,Cc1ccc(C)c(N(CC(=O)NC2CCCC2)C(=O)c2csnn2)c1,inactive
23,CC1(C)CC(=O)C(C=Nc2ccc(O)c(N=CC3=C(O)CC(C)(C)CC3=O)c2)=C(O)C1,active: 10.4 µM
24,Cc1[nH]c2ccc(C(=O)OC(C)C(=O)N(C)C3CCCCC3)cc2c1C (stereo not drawn),"inconclusive [inhibitor, single point]"
